Hit rate of the full screen: of about 50,000 compounds, about 800 (1.6%) showed an effect of 50% or more. The list shows a part of the results.

The test deals with Bcl-2-like protein 10 (Homo sapiens) (UniProt Q9HD36). The test is described as follows: Phenotype converters, Bcl-B/TR3 peptide binding displacement, primary biochemical FP (AID 1240).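 Also: 0% = Bcl-B with tracer peptide and DMSO and 100% = tracer peptide lacking Bcl-B.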 The settings on record: GST-Bcl-B / FITC-TR3 peptide fluorescence polarization; stronger effect = higher value; compound at 3.75 mg/L. In general terms: In fluorescence polarisation assays a small probe gives low polarisation when free and higher when bound to something large.
Chain of UniProt Q9HD36 (Q9HD36 whole entry, looked up): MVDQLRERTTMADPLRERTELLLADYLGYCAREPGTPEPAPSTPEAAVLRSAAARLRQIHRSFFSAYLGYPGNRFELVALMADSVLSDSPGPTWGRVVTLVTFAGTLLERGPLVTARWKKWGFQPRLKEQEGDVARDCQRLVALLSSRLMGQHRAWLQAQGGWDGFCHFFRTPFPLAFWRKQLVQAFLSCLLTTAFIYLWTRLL
Regarding `COc1ccc(-c2nocc2C#N)cc1OC`, the displacement was 7.2%.

For the compound `COC(=O)C(C)N(C(=O)c1ccc(Cl)cc1)c1c(C)cccc1C` (stereo not drawn), the displacement was determined as 16.4%.

As to `CC(NC(=O)c1cc2n(n1)C(C(F)(F)F)CC(c1ccc(Br)cc1)N2)c1ccccc1` (stereo not drawn), the displacement was -1.8%.

`Cc1ccc(SCC(=O)Nc2cccc(Br)c2)cc1`: the displacement amounted to 17.6%.

As for `Cc1cc(C)c(N2C(=O)c3ccc(C(=O)Nc4ccccc4C(=O)O)cc3C2=O)c(C)c1`, the displacement was found to be 3.3%.

With `COc1cc(C(=S)N2CCOCC2)cc(Br)c1O`, the displacement was -12.3%.

As to `Cc1cc(C)nc(NC(=O)c2cccc(F)c2)c1`, the displacement was -4.5%.

As to `Cc1ccc(-c2[nH]n3c(=O)c4c(nc3c2C)CCC4)cc1`, the displacement stood at 60.8%.

Regarding `O=C(CSc1nnc(-c2ccccc2)c(-c2ccccc2)n1)N1CCOCC1`, the displacement was -6%.

Take `Cc1cc(OCC(=O)Nc2ccc(Cc3ccncc3)cc2)ccc1Cl`: the displacement came to 0.4%.

On to `O=[N+]([O-])c1ccc(-c2nnc(-c3ccccc3)c(-c3ccccc3)n2)cc1`, for which the displacement came to 12.1%.

Consider `COc1ccc(C(=O)N2CCN(Cc3ccccc3)CC2)c(OC)c1`, for which the displacement is -8.9%.

As to `O=C(N/N=C/c1ccccc1[N+](=O)[O-])C(=O)Nc1cccc2ccccc12`, the displacement is 6.1%.

On to `C/C(=C\C(=O)ONC(=O)c1ccccc1)NCc1ccccc1`, for which the displacement amounted to 0%.

Turning to `O=C(CN1C(=O)c2ccc([N+](=O)[O-])cc2C1=O)N1CCCCC1`, the displacement was -9.1%.

For the compound `O=C(Nc1c(F)cc(F)cc1Br)c1nc2nc(-c3ccccc3)cc(C(F)(F)F)n2n1`, the displacement worked out at 10.8%.

On to `OCCNc1ncc(-c2ccccc2)cn1`, for which the displacement was -7.1%.

For `NS(=O)(=O)c1ccc(NC(=O)c2ccccc2I)cc1`, the displacement was -13.4%.

With `O=S(=O)(Nc1ccccc1CO)c1ccccc1`, the displacement came to 7%.

Regarding `O=C(c1cccs1)N1CCN(C2CCN(Cc3ccccc3)CC2)CC1`, the displacement was determined as 0.4%.

In the case of `Cc1ccc(N(CC(=O)Nc2cccc(Cl)c2C)S(C)(=O)=O)cc1`, the displacement is -5%.

`FC(F)(F)c1ccc2nnc(-c3cc(Br)ccc3OCc3ccccc3)n2c1`: the displacement was -10.6%.

For the compound `CCOC(=O)c1ccc(NC(=O)C(=O)NCCc2ccc(OC)c(OC)c2)cc1`, the displacement is -4.4%.

As for `O=[N+]([O-])c1ccc2c(c1)C1C=CCC1C(c1ccccc1Cl)N2` (stereo not drawn), the displacement turned out to be 4.5%.

As to `COC(=O)c1ccccc1NC(=O)Cn1cnc([N+](=O)[O-])n1`, the displacement was 11.9%.

For the compound `COC(=O)c1c(-c2ccccc2Cl)csc1N`, the displacement turned out to be 7.8%.

Regarding `CCOC(=O)c1c(C)nc2c(c1-c1ccc(Br)cc1)C(=O)CC(C)(C)C2`, the displacement is -6.2%.

As to `COc1ccc(S(=O)(=O)N/N=C/c2ccc3c(c2)OCO3)cc1`, the displacement is -5.9%.

As for `CCc1nnc(NS(=O)(=O)c2ccc(N=Cc3c(C)[nH]n(-c4ccc(Cl)cc4)c3=O)cc2)s1`, the displacement was found to be 4.6%.

As for `C(=N\N(c1ccccc1)c1ccccc1)/c1ccccc1`, the displacement was determined as 10.8%.

With `COc1ccc(CCNC(=O)C(=O)NCCc2ccc(OC)c(OC)c2)cc1`, the displacement is -16.4%.

As to `O=C(NC12CCC(O)C(SC1)/C2=N/O)c1ccccc1` (stereo not drawn), the displacement amounted to 12.7%.

As for `O=C(N/N=C/c1ccc([N+](=O)[O-])cc1)c1cc(C23CC4CC(CC(C4)C2)C3)[nH]n1`, the displacement was -9.4%.

For the compound `CCOc1cc(C(=O)Nc2ccc(Cl)c(-c3nc4ncccc4o3)c2)cc(OCC)c1OCC`, the displacement came out at 35.2%.

Regarding `CCOc1ccc2cc(S(=O)(=O)N3CCC(C)CC3)ccc2c1`, the displacement was 16.4%.

For `Cc1c(OC(C)C)ccc2c(-c3ccccc3)cc(=O)oc12`, the displacement was -2.5%.

With `COc1ccc(C2CC(=O)C3=C(C2)Nc2ccccc2NC3c2c[nH]c3ccccc23)cc1` (stereo not drawn), the displacement is -11.9%.

`Nc1nnc(SCC(=O)NCc2ccccc2)s1`: the displacement came to 12.4%.

For the compound `CC(=O)c1ccc(N2C(=O)C3C4C=CC(CC4)C3C2=O)cc1` (stereo not drawn), the displacement is 9.8%.

For `CC(C(=O)N1CCN(C)CC1)N1C(=O)c2ccccc2C1=O` (stereo not drawn), the displacement amounted to 7.1%.

For the compound `Cc1nc2sc(C(=O)c3ccc(Br)cc3)c(N)c2c(C)c1C`, the displacement came to 132%.

For `O=[N+]([O-])c1ccc(CSc2nnc(-c3cccc(F)c3)n2-c2ccccc2)cc1`, the displacement is 11.4%.

`CC(C)(C)C(=O)COc1cc2oc(=O)c3c(c2cc1Cl)CCC3`: the displacement was -0.7%.

Take `CCOC(=O)C1=C(C)NC(=S)NC1c1ccc(OCc2ccc(Cl)cc2Cl)c(OC)c1` (stereo not drawn): the displacement is -9.4%.

Take `COc1ccc(COC(=O)C2=C(C)NC3=C(C(=O)CC(C)(C)C3)C2c2cccs2)cc1` (stereo not drawn): the displacement is -11.4%.

For `CC(=O)Oc1cccc(N2C(=O)c3ccc(C(=O)Nc4cccc(C(=O)NCC(C)C)c4)cc3C2=O)c1`, the displacement was -8.7%.

On to `COc1ccc(C(NC=O)c2ccc(OC)cc2)cc1`, for which the displacement was -5.6%.

For `Cc1nn(C)c(C)c1N=Cc1c(O)ccc2ccccc12`, the displacement was determined as 11.6%.

Take `O=C(NCCCNc1ccc([N+](=O)[O-])cc1Cl)c1cccnc1`: the displacement is 10.8%.

Turning to `CC(=O)NN=C1CC(C)(C)NC(C)(C)C1`, the displacement worked out at 5.9%.

In the case of `COc1ccc(C(=O)NC(NC(=S)Nc2sc3c(c2C(N)=O)CCCC3)C(Cl)(Cl)Cl)cc1` (stereo not drawn), the displacement turned out to be 3.9%.

As to `O=C(CN(c1ccccc1)S(=O)(=O)c1ccccc1[N+](=O)[O-])NC1CCCCC1`, the displacement worked out at 7.8%.

On to `COc1cccc(C2/C(=C(\O)c3ccc(Cl)cc3)C(=O)C(=O)N2c2cccnc2)c1` (stereo not drawn), for which the displacement is -17.8%.

Take `CC1(C)CC(=O)C2=C(C1)NC1=C(C(=O)c3ccccc31)C2c1ccc(OC(=O)c2sc3ccccc3c2Cl)cc1` (stereo not drawn): the displacement was found to be 1.4%.

Regarding `O=C(NCc1ccccn1)c1ccccc1Oc1ccccc1`, the displacement stood at 12.3%.

Take `CCOC(=O)c1ccccc1NC(=O)CN(c1cccc([N+](=O)[O-])c1)S(=O)(=O)c1ccccc1`: the displacement is -5%.

Consider `Cc1cc(NNc2ccc(Cl)cc2)c(C(N)=O)c(C)n1`, for which the displacement amounted to 0%.

As for `COc1cccc(NC(=O)CN(c2cc(Cl)cc(Cl)c2)S(C)(=O)=O)c1`, the displacement amounted to 8.6%.

As for `Cc1ccc(-c2nc3ccccc3s2)cc1NC(=O)c1ccc(Br)o1`, the displacement was -3.3%.

Turning to `COc1ccc(S(=O)(=O)N2CCCCCC2)cc1`, the displacement was -7.8%.

Take `Cc1ccc(N2C(=O)C3C4c5ccccc5C(C)(c5ccccc54)C3C2=O)cc1` (stereo not drawn): the displacement was found to be 3.5%.

As for `O=C(O)CCCCCN1C(=O)C(=O)/C(=C(/O)c2ccc(Cl)cc2)C1c1ccccc1[N+](=O)[O-]` (stereo not drawn), the displacement is -2.6%.

Turning to `O=C(NCCCO)C(=O)Nc1cccc(Cl)c1Cl`, the displacement is 8.7%.

As for `O=C(Nc1ccc2nn(-c3ccc(Cl)cc3)nc2c1)c1ccccc1I`, the displacement stood at 7.4%.

In the case of `Cc1cc(C)c(S(=O)(=O)Nc2ccc(C(N)=O)cc2)c(C)c1`, the displacement was found to be 12.7%.

Take `CN1CCN(c2ccc3c4c(cccc24)C(=O)c2ccccc2-3)CC1`: the displacement is 2.9%.

As to `O=C(O)CSc1nc2ccc(NC(=O)c3ccccc3)cc2s1`, the displacement was 2.9%.

`C=CCN1C(=O)/C(=C\c2ccco2)C(C(=O)OC)=C1C`: the displacement was found to be 65.4%.

(Values after PubChem BioAssay AID1240 (Sanford-Burnham Center for Chemical Genomics, 2008).)
